In PubChem BioAssay AID1963576 (National Center for Advancing Translational Sciences (NCATS), 2024):
The campaign covered roughly 46,000 compounds. About 60 (0.1%) were called active. This list was built around the results that the source calls inconclusive (neither active nor inactive); the mix of calls is not that of the screen. The call rests on the fitted dose curve; in most records, active means well fitted inhibition curve with a large enough effect; inconclusive means small, poorly fitted or top-dose-only effect; inactive means no such curve, though single readings can be large or run the other way. Potencies of inconclusive entries are left out as doubtful fits.

Assay: Primary qHTS assay for Inhibitors of ovarian cancer metastasis using an organotypic tumor microenvironment (TME) model. Further: nearly all actives have a fitted effect of over 65% in size.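 On Potency: count of GFP cancer cells still attached after washing and fixation.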
Details: SKOV3ip1-GFP adhesion/invasion on 3D omental model, fluorescence; series mostly up to 45.8 µM
Summary of the method: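 Adhesion/invasion was scored as fixed GFP-labeled SKOV3ip1 cell counts (488/509 nm), normalized to DMSO and tomatine controls. Cancer cells in serum-free medium, with four compound doses (0.36-46 umol/L), sat 2 hr at RT then 16 hr at 37 C on a 48 hr fibroblast/mesothelial/ECM culture.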
Potency means the concentration at half of the fitted maximal effect; tags describe the fitted curve by direction and shape.

Row | Structure (SMILES) | Potency
1 | CCCNC(=O)c1ccc2c(c1)N=C(CCC)c1ccccc1S2 | inactive
2 | Cc1ccc2ccc3cc(C(=O)N4CCN(c5ccccc5F)CC4)nc3c2[nH]1 | inactive
3 | COc1ccc(S(=O)(=O)N(CC(=O)NC(C)c2ccccc2)c2ccc(C)cc2)cc1OC (stereo not given) | inconclusive [inhibitor, single point]
4 | COc1cccc(NC(=O)Cn2c(=O)oc3cc(S(=O)(=O)N4CCCCC4)ccc32)c1 | inconclusive [inhibitor, single point]
5 | CCc1ccc(C(=O)CC2(O)C(=O)N(CCc3ccccc3)c3ccc(Cl)cc32)cc1 (stereo not given) | inconclusive [inhibitor, single point]
6 | CC(C)c1ccc(Nc2c(-c3ccccn3)nc3ccccn23)cc1 | inconclusive [inhibitor, single point]
7 | Fc1cccc(CSc2ccc(-c3cccs3)nn2)c1 | inconclusive [inhibitor, single point]
8 | COc1ccc(-c2noc(CSc3nc4ccccc4[nH]3)n2)cc1OC | inactive
9 | COc1ccccc1CNC(=O)CCCCn1c(=O)c2ccccc2n(Cc2ccccc2F)c1=O | inactive
10 | O=C(Cn1ncn2c(cc3ccccc32)c1=O)NCc1ccc(F)cc1 | inconclusive [inhibitor, single point]
11 | Cc1ccc2[nH]c(=O)c3cc(C(=O)NCCCN4CCC(C)CC4)sc3c2c1 | inconclusive [inhibitor, single point]
12 | CCCCN1C(=O)C(O)(CC(=O)c2ccc(C)cc2C)c2cc(Br)ccc21 (stereo not given) | inconclusive [inhibitor, single point]
13 | COc1ccccc1NC(=O)COc1ccc(-c2nn(C)c(=O)c3ccccc23)cc1 | inactive
14 | Cc1ccc(CN(Cc2ccco2)C(=O)COc2ccc(C)c(C)c2)cc1 | inactive
15 | CCc1cccc(C)c1NC(=O)Cn1nc(C)c2nn(-c3ccc(Cl)cc3)c(C)c2c1=O | inconclusive [inhibitor, single point]
16 | CCCCc1ccc(NC(=O)c2ccc3c(c2)CCN3S(=O)(=O)CC)cc1 | inactive
17 | Cc1cccc(N2CCN(S(=O)(=O)c3cc(C(=O)Nc4ccc(Oc5ccccc5)cc4)ccc3F)CC2)c1C | inactive
18 | Cc1ccc(CNC(=O)Cc2csc3ccccc23)cc1 | inactive
19 | O=C(CCS(=O)(=O)c1ccccc1)N(Cc1cccnc1)c1nc2ccc(F)cc2s1 | inconclusive [inhibitor, single point]
20 | COc1ccc(CNC(=O)CC(c2ccc(OC)cc2)N2Cc3ccccc3C2=O)cc1 (stereo not given) | inconclusive [inhibitor, full curve, poor fit]
21 | CCOc1ccc(OCC)c(NC(=O)c2cc3ccccn3n2)c1 | inconclusive [inhibitor, partial curve, poor fit]
22 | COc1ccc(-c2noc(CC(=O)Nc3cc(OC)ccc3OC)n2)cc1 | inconclusive [inhibitor, single point]

Row | Structure (SMILES) | Potency
23 | Cc1ccc(NC(=O)/C=C/c2ccco2)cc1F | inconclusive [inhibitor, single point]
24 | FC(F)(F)c1cc(Nc2nc3ccccc3c3nncn23)ccc1Cl | inconclusive [inhibitor, single point]
25 | Clc1ccc(C(c2ccc(Cl)cc2)n2cc[n+](CC(OCc3ccc(Cl)cc3Cl)c3ccc(Cl)cc3Cl)c2)cc1 (stereo not given) | inconclusive [inhibitor, single point]
26 | CCOc1ccc(-c2cc(C(=O)NCCc3ccc(OC)c(OC)c3)c3c(-c4ccc(F)cc4)[nH]nc3n2)cc1 | inconclusive [inhibitor, full curve, poor fit]
27 | Cc1cc(C)cc(OCC(=O)N2CCC(c3nc4ccccc4s3)CC2)c1 | inactive
28 | Cc1cc(NC(=O)c2cccn2-c2nnc(N3CCCCC3)s2)ccc1Br | inconclusive [inhibitor, single point]
29 | COC(=O)COc1ccc(-c2nnc(Nc3ccc(O)cc3)c3ccccc23)cc1 | active: 2.51 µM
30 | COC(=O)c1ccccc1NC(=O)[C@H]1O[C@@H]2OC(C)(C)O[C@@H]2[C@H]2OC(C)(C)O[C@H]21 | inactive
31 | CCCCN(CC)C(=O)CSc1nc2n[nH]c(C)c2c(=N)n1-c1ccc(CC)cc1 | inactive
32 | CCOC(=O)c1cnc2c(ccc3ccccc32)c1Nc1ccc(N(C)C)cc1 | inconclusive [inhibitor, single point]
33 | Nc1c(C(=O)Nc2ccccc2Br)sc2nc(-c3cccs3)ccc12 | inconclusive [inhibitor, single point]
34 | Cc1noc2ncnc(N3CCN(c4cccc(C(F)(F)F)c4)CC3)c12 | inactive
35 | CCCCCCOC(=O)N=C(N)c1ccc(NCc2nc3cc(C(=O)N(CCC(=O)OCC)c4ccccn4)ccc3n2C)cc1 | inconclusive [inhibitor, single point]
36 | Cc1ccc(-c2c(C(=O)N3CCN(c4ccc(F)cc4)CC3)oc(=O)c3ccccc23)cc1 | inconclusive [inhibitor, single point]
37 | Cc1cccc2c1-c1sc(C(=O)NCCCN3CCN(c4ccccc4F)CC3)cc1CO2 | inconclusive [inhibitor, partial curve, poor fit]
38 | CCCCN(CC)C(=O)c1c[nH]c2ccc(S(=O)(=O)N(C)c3ccc(Cl)cc3)cc2c1=O | inactive
39 | Cc1ccc2nc(COc3cccc(NC(=O)c4ccccc4Cl)c3)cc(=O)n2c1 | inconclusive [inhibitor, partial curve, poor fit]
40 | CCOc1ccccc1NC(=O)Cn1c(=O)ccc2cc(S(=O)(=O)N3CCCC3)ccc21 | inconclusive [inhibitor, single point]
41 | COc1cccc(/C=C/C(=O)Nc2ccc3nc(N4CCN(C)CC4)cc(C)c3c2)c1OC | inconclusive [inhibitor, single point]
42 | CCN1C(C(=O)c2ccccc2)=C(OC(=O)c2ccccc2OC)c2ccccc2S1(=O)=O | inconclusive [inhibitor, single point]
43 | COc1cccc(CNC(=O)C2CCN(c3nnc(-n4c(C)ccc4C)s3)CC2)c1OC | inconclusive [inhibitor, single point]
44 | Cc1ccc(NC(=O)CSc2nc3ccccc3nc2N2CCOCC2)cc1 | inconclusive [inhibitor, full curve, poor fit]

Row | Structure (SMILES) | Potency
45 | CCOC(=O)c1oc2ccc(S(=O)(=O)n3nc(-c4ccc(Br)cc4)cc3N)cc2c1C | inconclusive [inhibitor, single point]
46 | COc1ccc(Nc2nc(N)c3cc(OC)c(OC)cc3n2)cc1 | inconclusive [inhibitor, single point]
47 | CCOc1ccccc1NC(=O)c1ccc(F)c(S(=O)(=O)NCc2ccc3c(c2)OCO3)c1 | inconclusive [inhibitor, partial curve, poor fit]
48 | COc1cc(/C=C(\C#N)c2nc3ccccc3[nH]2)ccc1OCc1cccc(C(F)(F)F)c1 | inconclusive [inhibitor, partial curve, poor fit]
49 | CCC1=Nc2cc(C(=O)NCCN(CC)CC)ccc2Sc2ccccc21 | inactive
50 | Cc1sc2c(c1C)c(=O)n(Cc1ccccc1)c(=O)n2Cc1ccc(F)cc1 | inactive
51 | CCOC(=O)c1cccc(NC(=O)c2cc3ccccn3n2)c1 | inactive
52 | CCCN1CCN(CCCNC(=O)c2ccc3c(c2)sc2nc(-c4ccc(C)cc4)cn23)CC1 | inconclusive [inhibitor, full curve, poor fit]
53 | CCCCOc1c(C(=O)c2c(F)cc(C)cc2F)cnc2n[nH]cc12 | inactive
54 | CC(=O)c1cccc(NC(=O)c2noc3c2CSc2ccccc2-3)c1 | inactive
55 | O=C(Nc1ccc(N2CCC(N3CCCCC3)CC2)c(C(=O)O)c1)c1ccccc1 | inconclusive [inhibitor, single point]
56 | Nc1c(C(=O)Nc2cccc(Cl)c2)sc2nc3c(cc12)CN(Cc1ccccc1)CC3 | inactive
57 | Cc1cc(Nc2sc(C(=O)c3ccc(F)cc3)c(N)c2C(=O)Nc2ccc(F)cc2)ccc1Cl | inconclusive [inhibitor, single point]
58 | CCOC(=O)c1c(C)[nH]c(CCC(=O)NCCCN2CCN(c3cc(C)ccc3C)CC2)c1C | inconclusive [inhibitor, single point]
59 | CCOc1cc(CNC(=O)c2ccc(C)c(NC(=O)c3nsc4ccccc34)c2)ccc1OC | inconclusive [inhibitor, single point]
60 | COc1ccc(CCNC(=O)CCn2c(=O)c3ccccc3n(Cc3ccc(Cl)cc3)c2=O)cc1OC | inactive
61 | CCCOc1cccc(C(=O)Nc2ccc(-c3nc4ccccc4s3)c(Cl)c2)c1 | inconclusive [inhibitor, single point]
62 | Cc1cccc(-c2nc(SCC(=O)Nc3cccc(C(F)(F)F)c3)n3[nH]c(=O)cc3n2)c1 | inconclusive [inhibitor, single point]
63 | CCn1c(SCC(=O)c2ccc([N+](=O)[O-])cc2)nnc1-c1ccc(Cl)cc1 | inconclusive [inhibitor, single point]
64 | COc1cc(Cn2c(=O)sc3ccccc32)ccc1OCCC(C)C | inconclusive [inhibitor, single point]
65 | CC[C@@H]1C=C(C)C[C@H](C)C[C@H](OC)[C@H]2O[C@@](O)(C(=O)C(=O)N3CCCC[C@@H]3C(=O)O[C@H](C(C)=C[C@@H]3CC[C@H](Cl)[C@H](OC)C3)[C@H](C)[C@@H](O)CC1=O)[C@H](C)C[C@H]2OC | inactive
